In all, about 33,000 sequences were measured (“E-score (-0.5 to 0.5)”: median about -0.012, highest 2% from about 0.27 on). Some of the results follow.
Each sequence was assayed against T1, Vhr1 (UniProt P40522) (assay: PBM E-score (8-mer binding enrichment) (E-score (-0.5 to 0.5)); higher = stronger / more preferred TF binding; most listed sequences are background and not binding sites). Conditions: protein concentration: 200 nM; construct: GST-full length.
T1 sequence: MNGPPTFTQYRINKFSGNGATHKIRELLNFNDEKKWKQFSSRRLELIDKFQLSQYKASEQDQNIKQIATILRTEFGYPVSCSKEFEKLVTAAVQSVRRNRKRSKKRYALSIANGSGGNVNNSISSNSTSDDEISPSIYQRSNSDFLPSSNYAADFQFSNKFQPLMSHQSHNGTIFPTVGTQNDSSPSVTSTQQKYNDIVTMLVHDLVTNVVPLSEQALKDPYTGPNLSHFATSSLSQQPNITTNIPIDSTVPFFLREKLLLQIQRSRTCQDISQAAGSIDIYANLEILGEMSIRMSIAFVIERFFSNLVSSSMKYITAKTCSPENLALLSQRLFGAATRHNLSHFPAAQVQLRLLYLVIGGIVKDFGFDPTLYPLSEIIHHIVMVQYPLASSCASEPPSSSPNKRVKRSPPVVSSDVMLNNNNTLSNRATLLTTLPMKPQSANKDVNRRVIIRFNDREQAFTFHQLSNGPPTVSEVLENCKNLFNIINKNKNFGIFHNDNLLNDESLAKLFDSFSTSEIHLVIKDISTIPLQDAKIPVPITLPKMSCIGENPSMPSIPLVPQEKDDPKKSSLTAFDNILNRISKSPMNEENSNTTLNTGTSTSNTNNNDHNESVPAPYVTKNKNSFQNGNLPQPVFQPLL
Description: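 Universal 'all 10-mer' protein binding microarrays (Agilent AMADID 015681) probed with GST-tagged S. cerevisiae TFs (full-length or DBD) made by in vitro transcription/translation (PURExpress), about 100-200 nM. Bound TF was detected with fluorescent anti-GST. Each ungapped 8-mer (which stands for itself and its reverse complement) is scored by the PBM enrichment score (E-score), a modified Wilcoxon-Mann-Whitney statistic from -0.5 to +0.5, computed with the Universal PBM Analysis Suite. Scale: above 0.35 generally sequence-specific binding.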

Sequence	PBM E-score
GCTGATAA	-0.143
AACGTATA	0.082
CGCATGAG	0.188
ATTACAAT	0.0868
ATTCGTCG	0.055
TGGTGTAA	0.0856
CACTCCCA	-0.0167
AAACTACG	0.0254
AACTAAAA	-0.168
CGTCCGTC	-0.0544
AGTCCGCA	0.17
TCTTGTCA	-0.135
CGATAATA	-0.0369
TAAATTTA	0.178
AACGTCCG	-0.128
GATCACTA	0.0933
ATGGGTAC	0.209
TAAAGCGA	0.0308
AACCATCT	0.0784
AGTTTAGG	-0.324
CACGATGC	0.0886
GAGCGGTA	-0.0335

Sequence	PBM E-score
CTTCGTCC	-0.161
ACAAAAGA	-0.00302
AGTATGGC	0.101
CTGACAAC	0.129
ATCAGGAC	0.0306
AGGTTTCG	-0.0888
AAGCTGAA	-0.22
ATCGAGTG	0.182
ACTTGCCG	-0.031
GGAGCACC	-0.0314
GTTGATAA	0.109
GGCCTCCA	-0.0798
ACGGCTTC	-0.178
GAGAATGA	0.0925
CGACCACG	0.00369
CTGCAGCC	-0.0424
ATCGCCGC	0.121
GTCCGCGA	0.0371
AAGGTGCC	-0.141
AACTTTCT	-0.0713
ATTTCTCC	-0.0554
ATAGTAGC	0.0929

Sequence	PBM E-score
AATGCGCC	0.0316
CCATTTTA	-0.111
GGAAGGCA	-0.192
CGTGGCCA	-0.164
GTGTGACA	0.00762
GGACGGCA	-0.0709
CGGATCGC	0.0328
ATACGAAG	-0.145
AAATAAAC	-0.0673
CCGACAGC	-0.116
ACCGTTTC	-0.106
CTACCGTA	0.167
AAGTCTGT	-0.113
GACCGCCC	-0.0912
CGGGTTGC	-0.0604
GCCAACGC	-0.215
GATCAATC	-0.0153
AAACAGGA	0.0183
CAGCGCTG	0.0755
CCGTAGGA	-0.226
CCCTTTAG	-0.343
CTACTAGA	0.0179

Sequence	PBM E-score
AAGACGAA	-0.0662
ATCTCTCC	-0.234
TAATGCAA	-0.0903
CAAATATG	-0.0219
CTAACCAG	0.0386
TAATAGCA	-0.00604
GCCCCCGA	-0.23
ATTTCTTA	-0.13
ACTGTTGG	0.034
AGACGAAT	0.0561
CGATGAAG	-0.068
AAGCATCG	-0.143
ATCTTCCG	-0.054
ACCGATCT	-0.0783
ATACAAAT	0.0417
ATGATATA	0.0327
CTACTCCC	0.12
AGGTGTAT	0.11
ATAGCACA	0.234
ACGGTTAC	0.0539

Source: the supplement of paper PMC3334620
